Hit rate of the full screen: of about 3,200 compounds, about 300 (9.4%) showed activity. The list shows a part of the results, in another mix than the full data.
Test system: A673/TR/shEF
Assay: cell viability (LOESS-normalised, relative to median of negative controls) (log2 ratio); higher = more viable cells (less compound effect), active = hit call of the paper (over 3 MAD below the median)
Conditions: treatment time: 72 h
Procedure, shortened: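 A673/TR/shEF Ewing sarcoma cells (1,500 per well, 384-well plates) were grown with or without doxycycline to induce EWS-FLI1 shRNA knockdown, starting 24 h before compounds. Library compounds at two or more concentrations, with DMSO controls, were added for three days. Cell viability was read by CellTiter-Glo luminescence on an Envision reader, then LOESS-corrected per plate, divided by the median of negative controls and log2-transformed. Hits were wells at least three median absolute deviations from the median of all screened wells.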

[1] = 0.25 µM, library screen: screen1, EWS-FLI1 expression: high (no doxycycline)
[2] = 0.25 µM, library screen: screen1, EWS-FLI1 expression: low (doxycycline-induced shRNA knockdown)
[3] = 0.25 µM, library screen: screen2, EWS-FLI1 expression: high (no doxycycline)
[4] = 0.25 µM, library screen: screen2, EWS-FLI1 expression: low (doxycycline-induced shRNA knockdown)
[5] = 2.5 µM, library screen: screen1, EWS-FLI1 expression: high (no doxycycline)
[6] = 2.5 µM, library screen: screen1, EWS-FLI1 expression: low (doxycycline-induced shRNA knockdown)
[7] = 2.5 µM, library screen: screen2, EWS-FLI1 expression: high (no doxycycline)
[8] = 2.5 µM, library screen: screen2, EWS-FLI1 expression: low (doxycycline-induced shRNA knockdown)
[9] = 0.103 µM, library screen: screen3, EWS-FLI1 expression: high (no doxycycline)
[10] = 0.103 µM, library screen: screen3, EWS-FLI1 expression: low (doxycycline-induced shRNA knockdown)
[11] = 0.308 µM, library screen: screen3, EWS-FLI1 expression: high (no doxycycline)
[12] = 0.308 µM, library screen: screen3, EWS-FLI1 expression: low (doxycycline-induced shRNA knockdown)
[13] = 0.926 µM, library screen: screen3, EWS-FLI1 expression: high (no doxycycline)
[14] = 0.926 µM, library screen: screen3, EWS-FLI1 expression: low (doxycycline-induced shRNA knockdown)
[15] = 2.8 µM, library screen: screen3, EWS-FLI1 expression: high (no doxycycline)
[16] = 2.8 µM, library screen: screen3, EWS-FLI1 expression: low (doxycycline-induced shRNA knockdown)
[17] = 8.3 µM, library screen: screen3, EWS-FLI1 expression: high (no doxycycline)
[18] = 8.3 µM, library screen: screen3, EWS-FLI1 expression: low (doxycycline-induced shRNA knockdown)
[19] = 25 µM, library screen: screen3, EWS-FLI1 expression: high (no doxycycline)
[20] = 25 µM, library screen: screen3, EWS-FLI1 expression: low (doxycycline-induced shRNA knockdown)

## CCCNCC(O)COc1ccccc1C(=O)CCc1ccccc1 (stereo not given)
[1]
  cell viability (log2): inactive: 0.0619
[2]
  cell viability (log2): inactive: 0.0658
[3]
  cell viability (log2): inactive: 0.182
[4]
  cell viability (log2): inactive: 0.117
[5]
  cell viability (log2): inactive: 0.0809
[6]
  cell viability (log2): inactive: -0.069
[7]
  cell viability (log2): inactive: 0.106
[8]
  cell viability (log2): inactive: 0.0368

## O=[N+]([O-])c1cccc2cn[nH]c12
[3]
  cell viability (log2): inactive: 0.196
[4]
  cell viability (log2): inactive: 0.0996
[7]
  cell viability (log2): inactive: 0.0483
[8]
  cell viability (log2): inactive: 0.0667

## COc1ccccc1OCC(O)CN1CCN(CC(=O)Nc2c(C)cccc2C)CC1 (stereo not given)
[9]
  cell viability (log2): inactive: 0.0717
[10]
  cell viability (log2): inactive: -0.00569
[3]
  cell viability (log2): inactive: 0.183
[4]
  cell viability (log2): inactive: 0.0629
[11]
  cell viability (log2): inactive: 0.0503
[12]
  cell viability (log2): inactive: 0.079
[13]
  cell viability (log2): inactive: 0.0573
[14]
  cell viability (log2): inactive: 0.121
[7]
  cell viability (log2): inactive: 0.125
[8]
  cell viability (log2): inactive: 0.0983
[15]
  cell viability (log2): inactive: 0.109
[16]
  cell viability (log2): inactive: 0.117
[17]
  cell viability (log2): inactive: 0.0881
[18]
  cell viability (log2): inactive: 0.0919
[19]
  cell viability (log2): inactive: 0.0739
[20]
  cell viability (log2): inactive: 0.0985

## CC(C)[C@@H]1NC(=O)[C@H](CCCCN)NC(=O)[C@@H](Cc2c[nH]c3ccccc23)NC(=O)[C@H](Cc2ccc(O)cc2)NC(=O)[C@H](C)N(C)C(=O)[C@H](Cc2ccccc2)NC1=O
[3]
  cell viability (log2): inactive: 0.191
[4]
  cell viability (log2): inactive: 0.085
[7]
  cell viability (log2): inactive: 0.149
[8]
  cell viability (log2): inactive: 0.111

## COc1cc([C@@H]2c3cc4c(cc3[C@@H](O[C@@H]3O[C@@H]5CO[C@@H](C)O[C@H]5[C@H](O)[C@H]3O)[C@H]3COC(=O)[C@H]23)OCO4)cc(OC)c1O
[9]
  cell viability (log2): inactive: 0.16
[10]
  cell viability (log2): inactive: 0.0754
[1]
  cell viability (log2): inactive: 0.0215
[2]
  cell viability (log2): inactive: 0.0298
[3]
  cell viability (log2): inactive: 0.197
[4]
  cell viability (log2): inactive: 0.0698
[11]
  cell viability (log2): inactive: 0.0781
[12]
  cell viability (log2): inactive: 0.0446
[13]
  cell viability (log2): inactive: 0.0107
[14]
  cell viability (log2): inactive: 0.0985
[5]
  cell viability (log2): active: -0.176
[6]
  cell viability (log2): inactive: 0.00733
[7]
  cell viability (log2): active: -0.711
[8]
  cell viability (log2): inactive: 0.00714
[15]
  cell viability (log2): active: -0.212
[16]
  cell viability (log2): inactive: -0.0251
[17]
  cell viability (log2): active: -0.857
[18]
  cell viability (log2): active: -0.166
[19]
  cell viability (log2): active: -1.25
[20]
  cell viability (log2): active: -0.367

## C[C@H]1C[C@@H]2[C@H]([C@@H](O)C[C@@]3(C)[C@H]2CC[C@]3(O)C(=O)CO)[C@@]2(C)C=CC(=O)C=C12
[9]
  cell viability (log2): inactive: 0.0283
[10]
  cell viability (log2): inactive: 0.061
[1]
  cell viability (log2): inactive: 0.152
[2]
  cell viability (log2): inactive: 0.0361
[11]
  cell viability (log2): inactive: 0.0425
[12]
  cell viability (log2): inactive: 0.0594
[13]
  cell viability (log2): inactive: 0.0629
[14]
  cell viability (log2): inactive: 0.0972
[5]
  cell viability (log2): inactive: 0.129
[6]
  cell viability (log2): inactive: -0.115
[15]
  cell viability (log2): inactive: 0.0626
[16]
  cell viability (log2): inactive: 0.106
[17]
  cell viability (log2): inactive: 0.0704
[18]
  cell viability (log2): inactive: 0.103
[19]
  cell viability (log2): inactive: 0.0302
[20]
  cell viability (log2): inactive: 0.0263

## CC(=O)c1c(C(C)=O)c(C)n(-c2cc(C)cc(C)c2)c1C
[1]
  cell viability (log2): inactive: 0.0993
[2]
  cell viability (log2): inactive: 0.13
[5]
  cell viability (log2): inactive: 0.0722
[6]
  cell viability (log2): inactive: 0.0963

## O=C(O)c1cc2c(Cl)cc(Cl)cc2[nH]1
[1]
  cell viability (log2): inactive: 0.105
[2]
  cell viability (log2): inactive: 0.0244
[5]
  cell viability (log2): inactive: 0.0763
[6]
  cell viability (log2): inactive: 0.0336

## CCOC(=O)C1=C(C)NC2=C(C(=O)CC(C)(C)C2)C1c1coc2ccccc2c1=O (stereo not given)
[1]
  cell viability (log2): inactive: 0.113
[2]
  cell viability (log2): inactive: 0.123
[5]
  cell viability (log2): inactive: 0.0647
[6]
  cell viability (log2): inactive: 0.0912

## CC(=O)N1CCC[C@H]1C(=O)O
[1]
  cell viability (log2): inactive: 0.138
[2]
  cell viability (log2): inactive: 0.0212
[5]
  cell viability (log2): inactive: 0.184
[6]
  cell viability (log2): inactive: 0.0486

## CC(C)CCC[C@@H](C)[C@H]1CC[C@H]2C3=CC[C@H]4C[C@@H](O)CC[C@]4(C)[C@H]3CC[C@]12C
[1]
  cell viability (log2): inactive: -0.0717
[2]
  cell viability (log2): inactive: -0.021
[5]
  cell viability (log2): inactive: 0.0758
[6]
  cell viability (log2): inactive: 0.0695

## COc1cc(-c2coc3cc(O[C@@H]4O[C@H](CO)[C@@H](O)[C@H](O)[C@H]4O)c(OC)c(O)c3c2=O)cc(O)c1OC
[1]
  cell viability (log2): inactive: 0.135
[2]
  cell viability (log2): inactive: 0.0699
[5]
  cell viability (log2): inactive: 0.116
[6]
  cell viability (log2): inactive: 0.111

## O=c1c(O)c(-c2ccccc2)oc2cc(O)ccc12
[1]
  cell viability (log2): inactive: 0.0271
[2]
  cell viability (log2): inactive: 0.0324
[5]
  cell viability (log2): inactive: 0.0788
[6]
  cell viability (log2): inactive: 0.174

## C=C1C(=O)OC2CC1C(OC(C)=O)C/C(C)=C/CC/C(C)=C\CCC2(C)O (stereo not given)
[1]
  cell viability (log2): inactive: 0.18
[2]
  cell viability (log2): inactive: 0.0249
[5]
  cell viability (log2): inactive: 0.0625
[6]
  cell viability (log2): inactive: -0.139

## OC[C@H]1O[C@@H](Oc2cc(O)cc(/C=C/c3ccc(O)cc3)c2)[C@H](O)[C@@H](O)[C@@H]1O
[1]
  cell viability (log2): inactive: 0.0243
[2]
  cell viability (log2): inactive: 0.0804
[5]
  cell viability (log2): inactive: 0.16
[6]
  cell viability (log2): inactive: 0.112

## COc1ccc(C2CNC(=O)C2)cc1OC1CCCC1 (stereo not given)
[3]
  cell viability (log2): inactive: 0.146
[4]
  cell viability (log2): inactive: 0.0589
[7]
  cell viability (log2): inactive: 0.166
[8]
  cell viability (log2): inactive: 0.136

## O=c1c(O)c(-c2ccc(O)cc2O)oc2cc(O)cc(O)c12
[1]
  cell viability (log2): inactive: 0.0874
[2]
  cell viability (log2): inactive: 0.0533
[3]
  cell viability (log2): inactive: 0.021
[4]
  cell viability (log2): inactive: 0.0486
[5]
  cell viability (log2): inactive: 0.125
[6]
  cell viability (log2): inactive: 0.109
[7]
  cell viability (log2): inactive: 0.0594
[8]
  cell viability (log2): inactive: 0.0376

## CC(/C=C/c1cccc(Oc2ccc(F)cc2)c1)N(O)C(N)=O (stereo not given)
[3]
  cell viability (log2): inactive: 0.185
[4]
  cell viability (log2): inactive: 0.0476
[7]
  cell viability (log2): inactive: 0.131
[8]
  cell viability (log2): inactive: -0.0183
